Measured values reported in article PMC4336329 (PLoS ONE, 2015).
Hit rate of the full screen: of about 310,000 compounds, about 14,000 (4.5%) showed an effect of 50% or more. The effect is printed as a negative number. This is one part of the list.

molecular target: human ether-à-go-go-related gene (hERG) potassium channel (human, UniProt Q12809); assay: primary screen, population patch clamp on CHO cells stably expressing hERG
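Further: peak tail current of the secondary pulse compared with the same well before compound.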

human ether-à-go-go-related gene (hERG) potassium channel, sequence (Q12809 whole entry, looked up): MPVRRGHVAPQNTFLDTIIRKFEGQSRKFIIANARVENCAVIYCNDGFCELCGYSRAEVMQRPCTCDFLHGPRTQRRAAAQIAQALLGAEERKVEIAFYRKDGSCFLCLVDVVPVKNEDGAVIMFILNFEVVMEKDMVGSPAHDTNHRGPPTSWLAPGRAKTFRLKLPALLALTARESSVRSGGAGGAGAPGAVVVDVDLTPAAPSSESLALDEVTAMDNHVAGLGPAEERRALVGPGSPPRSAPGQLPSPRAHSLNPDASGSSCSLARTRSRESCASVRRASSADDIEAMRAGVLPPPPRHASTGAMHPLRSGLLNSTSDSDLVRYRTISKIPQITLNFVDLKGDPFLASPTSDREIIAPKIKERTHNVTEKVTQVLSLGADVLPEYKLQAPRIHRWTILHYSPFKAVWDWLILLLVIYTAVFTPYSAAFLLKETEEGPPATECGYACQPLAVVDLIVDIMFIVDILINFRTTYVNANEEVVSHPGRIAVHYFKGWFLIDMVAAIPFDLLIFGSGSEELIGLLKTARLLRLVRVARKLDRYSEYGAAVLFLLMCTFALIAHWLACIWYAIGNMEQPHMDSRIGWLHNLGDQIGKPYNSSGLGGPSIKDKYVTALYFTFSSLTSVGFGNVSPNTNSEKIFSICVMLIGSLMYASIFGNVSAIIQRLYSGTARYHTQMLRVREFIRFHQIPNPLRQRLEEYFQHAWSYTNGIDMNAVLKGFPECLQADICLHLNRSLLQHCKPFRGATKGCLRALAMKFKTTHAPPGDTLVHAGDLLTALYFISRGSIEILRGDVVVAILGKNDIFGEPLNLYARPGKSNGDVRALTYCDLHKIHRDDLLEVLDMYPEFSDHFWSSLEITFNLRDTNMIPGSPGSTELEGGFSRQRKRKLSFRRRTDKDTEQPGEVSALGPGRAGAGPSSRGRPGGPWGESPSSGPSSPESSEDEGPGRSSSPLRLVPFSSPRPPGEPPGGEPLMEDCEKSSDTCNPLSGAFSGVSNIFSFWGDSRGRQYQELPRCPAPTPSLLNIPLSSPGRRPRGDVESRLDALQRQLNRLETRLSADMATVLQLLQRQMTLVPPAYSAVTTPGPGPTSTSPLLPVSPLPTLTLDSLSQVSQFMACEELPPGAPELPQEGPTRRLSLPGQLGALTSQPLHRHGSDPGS

SMILES | hERG current change (%, negative = inhibition) at 10uM [%]
CCn1cc(CN2CCCC(CO)(Cc3ccc(F)cc3)C2)c2ccccc21 (centres unmarked) | -32
CCN1CCN(Cc2ccc(NC(=O)c3ccc(C)c(NC(=O)c4nccnc4N)c3)cc2C(F)(F)F)CC1 | -6.3
COc1ccc(-n2c(Cc3ccccc3)nnc2SCc2ccc([N+](=O)[O-])cc2)cc1 | -68.4
O=C1C(NS(=O)(=O)c2cccs2)=C(N2CCN(c3cccc(Cl)c3)CC2)C(=O)c2ccccc21 | -14.2
Cn1cccc1C(=O)NNC(=O)COc1ccccc1F | 17.8
COc1cc(C(=O)OCc2ccc([N+](=O)[O-])cc2)cc(OC)c1OC | 2.74
Br.C#CCOC(=O)C1=CCCN(C)C1 | 8.29
COc1ccc(-c2ccc(SCC(=O)Nc3cc(C)on3)nn2)cc1OC | -8.61
COc1ccc(C)cc1NC(=O)n1ncc2cc(Cl)ccc21 | 15.9
O=C(O)c1cccc2c1C(=O)c1ccc(-c3ccc(F)cc3OCc3ccccc3)cc1S2(=O)=O | 9.57
COCC(=O)Nc1ccccc1Br | 5.26
COc1cc(C2C(C#N)=C(N)Oc3n[nH]c(C)c32)ccc1OC(=O)c1ccccc1 (centres unmarked) | 0.432
COCCNCCOCCOc1ccc(Cl)c(C)c1.O=C(O)C(=O)O | -21.9
COc1ccc(CCNC(=O)C2CCCN(S(=O)(=O)N3CC(C)CC(C)C3)C2)cc1OC (centres unmarked) | 8.11
COc1ccc(S(=O)(=O)N(C)C2CCN(C)CC2)cc1 | -26.1
CCCN(CC(=O)Nc1ccc(F)c(F)c1F)C(=O)CCc1nc2ccccc2c(=O)[nH]1 | -45.8
CCCCNC(=O)c1ccc(N2CCC3(CC2)OCCO3)c([N+](=O)[O-])c1 | -22.2
O=c1[nH][nH]cc1C=Nc1ccc(Oc2ccccc2)cc1 | 11.6
COc1ccccc1CNC(=O)CCc1cn(C)c2ccccc12 | -2.68

SMILES | hERG current change (%, negative = inhibition) at 10uM [%]
CC(C)C(=O)NC(C)C(c1cccs1)N1CCN(c2ccccc2)CC1 (centres unmarked) | -29.9
CCCN(CC(=O)Nc1ccccc1C)C(=O)Cc1coc2cc(C)ccc12 | -42.1
CCc1ccccc1NS(=O)(=O)c1cc(C)ccc1OC | -5.89
CC1(C)CC(=O)C(C(c2ccc(F)cc2)C2C(=O)CC(C)(C)CC2=O)C(=O)C1 | 6.64
CCN(CC(=O)NC(=O)NCc1ccco1)Cc1nc2ccccc2c(=O)[nH]1 | -16.6
CC(C)(C)NC(=O)COc1ccc(CNc2ccc3[nH]c(=O)[nH]c3c2)cc1 | -1.87
Cc1nc2c(o1)CCc1ccccc1C2N1CCN(C)CC1.O=C(O)/C=C/C(=O)O (centres unmarked) | -5.58
COc1cccc(/C(O)=C2/C(=O)C(=O)N(CCN3CCOCC3)C2c2cccnc2)c1 (centres unmarked) | 7.31
CCc1cccc(N(CC(=O)NC2CCCCC2)C(=O)c2csnn2)c1 | 1.71
COC(=O)c1cc2n(n1)CCN(Cc1ccc(F)cc1)C2=O | -16.6
Cc1ccccc1C(=O)N/N=C/c1ccsc1C | 15.1
O=C(C1CCCO1)N1CCN(c2ccc(F)cc2)CC1 (centres unmarked) | -2.42
CCOC(=O)c1cnn2c(C)cc(-c3ccc(F)cc3)nc12 | -24.6
CN(C)S(=O)(=O)c1cccc(COC(=O)c2cccnc2Cl)c1 | -26.9
c1ccc(C2=Nn3c(Cn4nnc5ccccc54)nnc3SC2)cc1 | -4.34
CCCn1nc(Oc2nc(NCC)nc(NCC)n2)ccc1=O | 1.1
CCC(C)(C)C1CCC2(CC1)NC(=O)N(CC(=O)N(C)CC(=O)Nc1ccccc1C(F)(F)F)C2=O (centres unmarked) | -5.55
Cc1ccnn1CCC(=O)N1CCCC(Nc2ccc(F)c(F)c2)C1 (centres unmarked) | 7.99
Cc1cccc(C(=O)NCCc2ccccc2)c1 | 1.51

SMILES | hERG current change (%, negative = inhibition) at 10uM [%]
CCCc1ccc(C(=O)CN2C(=O)C(=O)N(C3CCCC3)C2=O)cc1 | -42.4
O=C(Cn1nc(C(=O)O)c2ccccc2c1=O)Nc1ccc(Br)cc1 | 11.5
CCC(CC)c1nnc(NC(=O)Oc2ccccc2)s1 | -2.43
CCSc1nnc(NC(=O)c2ccc(Br)s2)s1 | 2.27
CC(C)n1cnnc1SCC(=O)Nc1cccc(S(=O)(=O)N(C)c2ccccc2)c1 | -12.4
CC(C)CO/C(=N/S(=O)(=O)c1ccccc1)c1ccccc1 | 2.73
CCc1cc(=O)oc2cc(OC(C)C(=O)NCc3ccccn3)ccc12 (centres unmarked) | 14.4
CC(C)NC(=O)C1CCCN(c2nnc(-n3cccc3)s2)C1 (centres unmarked) | -16.4
COc1cc(CO)ccc1OCC(=O)Nc1cccc2ccccc12 | 6.8
CCCNC(=O)C1CC(c2ccccc2[N+](=O)[O-])=NO1 (centres unmarked) | 8.52
O=C(O)CC(NNC(=O)c1ccccc1)C(=O)Nc1cccc([N+](=O)[O-])c1 (centres unmarked) | 23.3
Cn1cnnc1SCC(=O)c1ccc(O)c(O)c1 | 18.7
COC(=O)c1sccc1NC(=O)c1cc(-c2ccc(C)cc2C)nc2ccccc12 | 6.94
Nc1nc(NCC2CCCO2)nc(Nc2ccc(F)cc2)c1[N+](=O)[O-] (centres unmarked) | -7.87
CC#CC[N+](C)(C)CCCCCCCCCCCC.[Br-] | -49
O=C(c1c[nH]c(C(=O)N2CCN(Cc3ccccc3)CC2)c1)C1CCCCC1 | -5.11
CCOC(=O)c1sc(-c2ccccc2)cc1NC(=O)Nc1ccc([N+](=O)[O-])cc1 | 12.9
Cc1ccc([N+](=O)[O-])cc1NC(=S)NC(=O)c1cccs1 | 9.89
